Experimental data published in the supplement of paper PMC3334620.
Over roughly 33,000 sequences, “E-score (-0.5 to 0.5)” has its median near -0.016; the highest 2% begin near 0.32. The list shows a part of the results.

biological target: T1, Stp1 (UniProt B3LFK1); assay: PBM E-score (8-mer binding enrichment) (E-score (-0.5 to 0.5)); higher = stronger / more preferred TF binding; most listed sequences are background and not binding sites; settings: protein concentration: 200 nM; construct: GST-full length
T1 sequence: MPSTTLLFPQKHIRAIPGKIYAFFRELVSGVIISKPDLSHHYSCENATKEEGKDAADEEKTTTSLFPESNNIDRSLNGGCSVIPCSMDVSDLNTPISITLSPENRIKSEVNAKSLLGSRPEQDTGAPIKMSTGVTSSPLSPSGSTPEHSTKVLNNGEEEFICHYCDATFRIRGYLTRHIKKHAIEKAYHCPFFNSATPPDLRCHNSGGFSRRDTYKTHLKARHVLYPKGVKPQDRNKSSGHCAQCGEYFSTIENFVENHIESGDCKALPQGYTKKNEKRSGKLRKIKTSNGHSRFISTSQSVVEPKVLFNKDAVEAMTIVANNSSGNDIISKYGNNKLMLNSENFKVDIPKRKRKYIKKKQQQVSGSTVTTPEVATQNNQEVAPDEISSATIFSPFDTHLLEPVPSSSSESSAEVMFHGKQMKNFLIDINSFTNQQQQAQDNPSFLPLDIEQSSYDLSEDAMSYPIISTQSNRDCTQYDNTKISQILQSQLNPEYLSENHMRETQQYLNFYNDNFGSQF
Procedure, shortened: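 Bound GST-tagged yeast transcription factors, applied at about 100-200 nM to double-stranded universal all-10-mer Agilent arrays, were detected with fluorescent anti-GST. Scans were normalised with masliner. A modified Wilcoxon-Mann-Whitney statistic, the E-score, was assigned to each ungapped eight-base word pooled with its reverse complement by the Universal PBM Analysis Suite.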

Sequence | PBM E-score
GCTTCTCC | -0.305
AAATTTTG | 0.0658
ACTGTCCT | -0.097
AATTTCGG | 0.0123
AAGTCAGC | 0.0691
AGCACTGC | -0.154
ATTGCCAG | -0.132
AATACCAC | -0.0688
CTCTGGAC | -0.0647
CTCGGCTA | 0.0804
GCATAAGA | 0.0798
ATAGTACC | -0.0252
GGTACCAC | -0.186
ATTTGGCG | 0.0371
AGACTCGA | -0.1
AGGCCGAC | -0.315
TTGGCCAA | 0.0581
AAGAGTAT | -0.0582
AGCACAGC | 0.278
TGGCTTAA | 0.193
AAGGTTCA | 0.0509
TCGCTAGA | -0.104
GCGCTAGA | 0.0885
TAACTCTA | -0.181
CAGAACAC | -0.201

Sequence | PBM E-score
AAGCCTGG | -0.286
CCTGTGGC | -0.0181
ATGGATCA | -0.032
CTGTCCGA | -0.111
CATATCCA | -0.0445
CACAAGAC | -0.161
AACAGGCT | -0.132
CAAATCCC | -0.133
GTAAAAAC | 0.0895
GCTCGGAA | 0.0125
GCTCCCTA | -0.215
CCTAAACG | 0.015
ACCGAACG | 0.249
GCGCGAAA | 0.292
AGGCTACG | -0.129
AGTTTTAA | 0.161
AATGTAGG | -0.132
AGTCCCTG | -0.3
CCCTAGAC | -0.188
GACTTCGC | -0.0576
CTGTTTGA | -0.00659
CGCTGTTC | -0.108
AGCTGTGG | -0.18
CTAGGCCC | -0.353
AGTCGCTA | -0.338

Sequence | PBM E-score
CATAGCCA | -0.0996
AGCGGGTG | -0.214
GCAAGGGA | -0.0808
ACCTTCAC | -0.16
ATATTATC | 0.15
GATTACAC | 0.0767
ACGTCACC | -0.295
CGATAATC | -0.128
CACTGAAA | 0.161
GACCGTAC | -0.0763
ATGTCCAC | -0.152
ATCCTATA | 0.0456
GTGGGACA | -0.201
CAAGTCCC | -0.308
AGGTATTC | -0.0247
AATACGCA | 0.0268
ACGCGGGC | 0.103
AAATCAAC | -0.174
CTCGCTCC | 0.219
ACACCAGG | -0.258
CGAGCCAA | -0.0114
CCACGGAC | -0.0119
AGCGAGCA | -0.134
GTCGCCTA | 0.124
AAGAAACG | 0.147

Sequence | PBM E-score
TCAGTCGA | -0.0184
CCTGAGAA | -0.129
CCCGTGTA | 0.0889
ATATACTA | 0.281
CAGAGCGG | -0.0315
CCTGCCTA | -0.0123
AGTTGTTG | -0.0282
ATCATACC | 0.12
GAAGGCGA | 0.129
GACATGTC | -0.251
ATTATCTA | 0.271
ACCCGGAC | -0.232
AAAAAACA | 0.166
GTTATGCA | -0.175
GGCTACCC | -0.124
GGATCCGA | -0.221
CGTTCGGC | 0.222
AGTATATC | 0.0639
ATGTAGGA | -0.0969
ATCGACAT | 0.118
CGGTTTTC | 0.156
CGTAACTA | -0.00679
AAAAGAGC | -0.103
CGGGCTTA | -0.111
ACCTCATC | -0.232

Sequence | PBM E-score
CGGACCCG | -0.109
AGAGCTTA | 0.00485
ATCTCATA | -0.0182
CTACCATC | -0.197
GAGGCCGC | 0.095
CCCGGAAC | -0.128
AACTGTAA | 0.138
GCTGCACC | -0.289
CGCATTAC | -0.0452
GAGCCTTA | 0.222
GACTTGGC | -0.232
ATGACAAG | -0.0428
CGTCGGCC | -0.0975
ACCCGTAA | 0.0634
CGCGGGGA | 0.0818
CCCTCGAC | -0.176
AATACTAT | 0.0992
GTCATTCA | 0.0248
GCAAAACA | 0.0992
GTACGTAC | -0.0763
AGAGATAC | 0.18
CCAAGAGG | -0.0517
AGAGCAAA | -0.0976
CAGGAGAG | -0.238
AGGGTGTC | -0.266

Sequence | PBM E-score
CCTGTGTA | 0.033
CTGCAACA | 0.0237
ATCTATCA | 0.0923
AAGATATA | 0.1
ACTTCTGC | 0.0768
CATGACGC | 0.0645
ATTATGGG | -0.0601
GTCTGCTA | 0.0581
CCCCCTCG | -0.353
CAAGACCA | -0.15
AAGGAGGC | -0.122
ATAGAATA | 0.138
CAGACTAA | -0.0572
ATGTACCG | 0.0424
AAGGAGTG | -0.0636
ACCAATAT | 0.012
CGGCTCTA | 0.425
AGTACGCA | -0.25
AAGAGACG | 0.101
CTCAGAAA | 0.0285
CTTACCCC | -0.264
ACTTGTTG | -0.0561
AACCGTGA | -0.155
ACACACGC | 0.0943
CGCCAAGC | -0.00314

Sequence | PBM E-score
ACCTCGCA | -0.08
AACAGCAA | 0.1
CTCGGCGC | 0.382
CACGGTGA | 0.131
GAGACCTC | -0.263
ATGTAAAG | 0.0971
AGGTCTTA | -0.183
CAGAGTCG | -0.204
CAGCATAG | 0.0477
ATAGCACC | -0.0975
CGCCATAG | 0.165
CGGCCATA | 0.145
ACGCAATG | -0.0464
CATCACTA | -0.0115
AAAAGTGC | 0.124
GAATCATA | 0.0773
CCACCGGG | -0.231
CATTTAAA | 0.279
AGGCCAGA | -0.103
CCGGTTTA | -0.161
GTCATAAC | -0.0625
CCGTACCA | 0.261
